Some of the results follow. Sequences were assembled here from the parent chain. Inactive controls read about 0.05.
B1: TEV protease; numbered along this chain (parent)
chain: MGESLFKGPRDYNPISSSICHLTNESDGHTTSLYGIGFGPFIITNKHLFRRNNGTLVVQSLHGVFKVKDTTTLQQHLVDGRDMIIIRMPKDFPPFPQKLKFREPQREERICLVTTNFQTKSMSSMVSDTSCTFPSGDGIFWKHWIQTKDGQCGSPLVSTRDGFIVGIHSASNFTNTNNYFTSVPKNFMELLTNQEAQQWVSGWRLNADSVLWGGHKVFMVKPEEPFQPVKEATQL

Variants of: B1
Assay: raw area under fraction-flipped curve 0-4 h after induction (AUC4h, not background-subtracted), DNA-recorder readout of cleavage of the substrate (dimensionless); higher = more cleavage of the substrate by the protease variant
Settings: temperature: 34 °C; time window: 0-4 h after rhamnose induction
Protocol: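 In vivo DNA recorder in E. coli TOP10(DE3) ΔrhaA at 34 °C. Each TEVp single-site mutant (parent TEVp 0) is paired with a single-site variant of the 7-mer TEVs (canonical ENLYFQ|S). The substrate sits between flexible linkers in a Bxb1-sfGFP-TEVs-SsrA fusion, so cleavage stabilises Bxb1 and speeds flipping of a recombination array, read by NGS. The value is the raw area under the fraction-flipped curve over 0-4 h after rhamnose induction (AUC4h), with ≥20 reads per time point. It is not background-subtracted; inactive controls average about 0.047.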
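Also: Bxb1 expression induced with 0.2% (w/v) L-rhamnose at OD600 near 0.5, cultures sampled hourly, flipped fraction per protease–substrate barcode pair counted by paired-end Illumina sequencing.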

Variant	area with substrate ENLCFQS	area with substrate ENLDFQS	area with substrate ENLEFQS	area with substrate ENLFFQS	area with substrate ENLHFQS	area with substrate ENLIFQS	area with substrate ENLKFQS	area with substrate ENLLFQS	area with substrate ENLNFQS	area with substrate ENLPFQS	area with substrate ENLRFQS	area with substrate ENLSFQS	area with substrate ENLWFQS	area with substrate ENLGFQS	area with substrate ENLMFQS	area with substrate ENLQFQS	area with substrate ENLTFQS	area with substrate ENLVFQS
MGESLFKGKRDYNPISSSICHLTNESDGHTTSLYGIGFGPFIITNKHLFRRNNGTLVVQSLHGVFKVKDTTTLQQHLVDGRDMIIIRMPKDFPPFPQKLKFREPQREERICLVTTNFQTKSMSSMVSDTSCTFPSGDGIFWKHWIQTKDGQCGSPLVSTRDGFIVGIHSASNFTNTNNYFTSVPKNFMELLTNQEAQQWVSGWRLNADSVLWGGHKVFMVKPEEPFQPVKEATQL [P9K]	0.0702	0.0737	0.0586	0.0763	0.0604	0.0961	0.0597	0.0199	0.0499	0.0525	0.0786	0.0312	0.0651	–	–	–	–	–
MGESLFKGPHDYNPISSSICHLTNESDGHTTSLYGIGFGPFIITNKHLFRRNNGTLVVQSLHGVFKVKDTTTLQQHLVDGRDMIIIRMPKDFPPFPQKLKFREPQREERICLVTTNFQTKSMSSMVSDTSCTFPSGDGIFWKHWIQTKDGQCGSPLVSTRDGFIVGIHSASNFTNTNNYFTSVPKNFMELLTNQEAQQWVSGWRLNADSVLWGGHKVFMVKPEEPFQPVKEATQL [R10H]	0.065	0.0666	–	0.0815	0.0617	0.0717	0.0619	–	0.0718	0.0475	–	0.0608	0.0814	0.071	0.0721	0.0589	0.0633	–
MGESLFKGPRHYNPISSSICHLTNESDGHTTSLYGIGFGPFIITNKHLFRRNNGTLVVQSLHGVFKVKDTTTLQQHLVDGRDMIIIRMPKDFPPFPQKLKFREPQREERICLVTTNFQTKSMSSMVSDTSCTFPSGDGIFWKHWIQTKDGQCGSPLVSTRDGFIVGIHSASNFTNTNNYFTSVPKNFMELLTNQEAQQWVSGWRLNADSVLWGGHKVFMVKPEEPFQPVKEATQL [D11H]	0.057	0.0712	0.0481	0.0871	0.0678	0.0748	0.0649	–	0.0624	0.0557	0.0618	0.0684	–	–	0.0618	0.059	0.0687	0.0865
MGESLFKGPRDYYPISSSICHLTNESDGHTTSLYGIGFGPFIITNKHLFRRNNGTLVVQSLHGVFKVKDTTTLQQHLVDGRDMIIIRMPKDFPPFPQKLKFREPQREERICLVTTNFQTKSMSSMVSDTSCTFPSGDGIFWKHWIQTKDGQCGSPLVSTRDGFIVGIHSASNFTNTNNYFTSVPKNFMELLTNQEAQQWVSGWRLNADSVLWGGHKVFMVKPEEPFQPVKEATQL [N13Y]	0.0973	0.0702	0.0559	0.0591	–	0.0962	0.0888	0.0733	0.0527	–	0.0809	0.0713	0.0894	–	–	–	–	–
MGESLFKGPRDYNPHSSSICHLTNESDGHTTSLYGIGFGPFIITNKHLFRRNNGTLVVQSLHGVFKVKDTTTLQQHLVDGRDMIIIRMPKDFPPFPQKLKFREPQREERICLVTTNFQTKSMSSMVSDTSCTFPSGDGIFWKHWIQTKDGQCGSPLVSTRDGFIVGIHSASNFTNTNNYFTSVPKNFMELLTNQEAQQWVSGWRLNADSVLWGGHKVFMVKPEEPFQPVKEATQL [I15H]	0.0714	0.0684	0.0562	0.0992	0.0653	0.0692	0.0804	0.0619	0.0643	0.0608	–	0.0762	–	–	0.0909	0.0823	–	0.0825
MGESLFKGPRDYNPISSSICHLTNLSDGHTTSLYGIGFGPFIITNKHLFRRNNGTLVVQSLHGVFKVKDTTTLQQHLVDGRDMIIIRMPKDFPPFPQKLKFREPQREERICLVTTNFQTKSMSSMVSDTSCTFPSGDGIFWKHWIQTKDGQCGSPLVSTRDGFIVGIHSASNFTNTNNYFTSVPKNFMELLTNQEAQQWVSGWRLNADSVLWGGHKVFMVKPEEPFQPVKEATQL [E25L]	0.0782	0.0618	0.0691	0.0881	0.0679	0.0724	0.0824	0.0936	0.0574	0.0564	0.089	0.0663	0.0572	0.0777	–	0.076	–	–
MGESLFKGPRDYNPISSSICHLTNESDFHTTSLYGIGFGPFIITNKHLFRRNNGTLVVQSLHGVFKVKDTTTLQQHLVDGRDMIIIRMPKDFPPFPQKLKFREPQREERICLVTTNFQTKSMSSMVSDTSCTFPSGDGIFWKHWIQTKDGQCGSPLVSTRDGFIVGIHSASNFTNTNNYFTSVPKNFMELLTNQEAQQWVSGWRLNADSVLWGGHKVFMVKPEEPFQPVKEATQL [G28F]	0.0598	–	0.0652	0.0878	0.092	0.093	0.0622	–	0.063	0.0619	–	0.0649	0.0705	–	–	–	–	0.0643
MGESLFKGPRDYNPISSSICHLTNESDGHTTSLYGIVFGPFIITNKHLFRRNNGTLVVQSLHGVFKVKDTTTLQQHLVDGRDMIIIRMPKDFPPFPQKLKFREPQREERICLVTTNFQTKSMSSMVSDTSCTFPSGDGIFWKHWIQTKDGQCGSPLVSTRDGFIVGIHSASNFTNTNNYFTSVPKNFMELLTNQEAQQWVSGWRLNADSVLWGGHKVFMVKPEEPFQPVKEATQL [G37V]	0.0594	0.0684	0.0559	0.0821	0.0619	0.0726	0.0564	0.0578	0.0455	0.0563	0.0671	0.0551	0.0567	0.0602	0.0596	–	–	0.0586
MGESLFKGPRDYNPISSSICHLTNESDGHTTSLYGIGNGPFIITNKHLFRRNNGTLVVQSLHGVFKVKDTTTLQQHLVDGRDMIIIRMPKDFPPFPQKLKFREPQREERICLVTTNFQTKSMSSMVSDTSCTFPSGDGIFWKHWIQTKDGQCGSPLVSTRDGFIVGIHSASNFTNTNNYFTSVPKNFMELLTNQEAQQWVSGWRLNADSVLWGGHKVFMVKPEEPFQPVKEATQL [F38N]	0.0548	0.0611	0.0713	0.0647	0.0535	0.0785	0.0561	0.0489	0.0548	0.0654	0.0657	–	–	0.0561	–	0.0509	–	0.0667
MGESLFKGPRDYNPISSSICHLTNESDGHTTSLYGIGTGPFIITNKHLFRRNNGTLVVQSLHGVFKVKDTTTLQQHLVDGRDMIIIRMPKDFPPFPQKLKFREPQREERICLVTTNFQTKSMSSMVSDTSCTFPSGDGIFWKHWIQTKDGQCGSPLVSTRDGFIVGIHSASNFTNTNNYFTSVPKNFMELLTNQEAQQWVSGWRLNADSVLWGGHKVFMVKPEEPFQPVKEATQL [F38T]	0.0887	0.0656	0.0669	0.0752	0.0607	0.064	0.0664	0.0775	0.0605	0.0507	0.0641	–	0.0587	–	–	0.0796	–	0.0793
MGESLFKGPRDYNPISSSICHLTNESDGHTTSLYGIGFNPFIITNKHLFRRNNGTLVVQSLHGVFKVKDTTTLQQHLVDGRDMIIIRMPKDFPPFPQKLKFREPQREERICLVTTNFQTKSMSSMVSDTSCTFPSGDGIFWKHWIQTKDGQCGSPLVSTRDGFIVGIHSASNFTNTNNYFTSVPKNFMELLTNQEAQQWVSGWRLNADSVLWGGHKVFMVKPEEPFQPVKEATQL [G39N]	0.0451	0.0379	0.0401	0.037	0.0406	0.0416	–	0.037	0.0458	0.0463	0.0621	0.0438	0.0319	0.0458	–	0.0448	–	0.0468
MGESLFKGPRDYNPISSSICHLTNESDGHTTSLYGIGFGPFQITNKHLFRRNNGTLVVQSLHGVFKVKDTTTLQQHLVDGRDMIIIRMPKDFPPFPQKLKFREPQREERICLVTTNFQTKSMSSMVSDTSCTFPSGDGIFWKHWIQTKDGQCGSPLVSTRDGFIVGIHSASNFTNTNNYFTSVPKNFMELLTNQEAQQWVSGWRLNADSVLWGGHKVFMVKPEEPFQPVKEATQL [I42Q]	0.04	0.0439	–	0.045	0.0467	0.0465	0.0412	–	0.0545	0.0368	–	0.0364	–	0.0516	–	0.0332	–	–
MGESLFKGPRDYNPISSSICHLTNESDGHTTSLYGIGFGPFIWTNKHLFRRNNGTLVVQSLHGVFKVKDTTTLQQHLVDGRDMIIIRMPKDFPPFPQKLKFREPQREERICLVTTNFQTKSMSSMVSDTSCTFPSGDGIFWKHWIQTKDGQCGSPLVSTRDGFIVGIHSASNFTNTNNYFTSVPKNFMELLTNQEAQQWVSGWRLNADSVLWGGHKVFMVKPEEPFQPVKEATQL [I43W]	0.0526	0.0564	–	0.0422	0.0362	0.0544	–	0.0377	0.053	0.0558	–	–	–	0.0442	0.0426	0.0586	–	–
MGESLFKGPRDYNPISSSICHLTNESDGHTTSLYGIGFGPFIIHNKHLFRRNNGTLVVQSLHGVFKVKDTTTLQQHLVDGRDMIIIRMPKDFPPFPQKLKFREPQREERICLVTTNFQTKSMSSMVSDTSCTFPSGDGIFWKHWIQTKDGQCGSPLVSTRDGFIVGIHSASNFTNTNNYFTSVPKNFMELLTNQEAQQWVSGWRLNADSVLWGGHKVFMVKPEEPFQPVKEATQL [T44H]	0.0339	0.0441	–	0.066	0.0439	0.0408	0.0742	0.0716	0.0513	0.0433	–	0.0527	0.0507	–	0.0594	0.0615	–	0.0645
MGESLFKGPRDYNPISSSICHLTNESDGHTTSLYGIGFGPFIITFKHLFRRNNGTLVVQSLHGVFKVKDTTTLQQHLVDGRDMIIIRMPKDFPPFPQKLKFREPQREERICLVTTNFQTKSMSSMVSDTSCTFPSGDGIFWKHWIQTKDGQCGSPLVSTRDGFIVGIHSASNFTNTNNYFTSVPKNFMELLTNQEAQQWVSGWRLNADSVLWGGHKVFMVKPEEPFQPVKEATQL [N45F]	0.0617	0.0688	–	0.0623	0.0571	–	0.0443	–	0.0691	0.0649	0.053	0.0534	0.0542	0.0709	0.0626	0.0781	–	0.0628
MGESLFKGPRDYNPISSSICHLTNESDGHTTSLYGIGFGPFIITNIHLFRRNNGTLVVQSLHGVFKVKDTTTLQQHLVDGRDMIIIRMPKDFPPFPQKLKFREPQREERICLVTTNFQTKSMSSMVSDTSCTFPSGDGIFWKHWIQTKDGQCGSPLVSTRDGFIVGIHSASNFTNTNNYFTSVPKNFMELLTNQEAQQWVSGWRLNADSVLWGGHKVFMVKPEEPFQPVKEATQL [K46I]	0.0516	0.0601	0.0568	–	0.0597	0.0656	0.0705	0.0636	0.0633	0.0526	0.0624	0.0696	0.068	–	0.063	0.0675	–	0.0573
MGESLFKGPRDYNPISSSICHLTNESDGHTTSLYGIGFGPFIITNKHLFRFNNGTLVVQSLHGVFKVKDTTTLQQHLVDGRDMIIIRMPKDFPPFPQKLKFREPQREERICLVTTNFQTKSMSSMVSDTSCTFPSGDGIFWKHWIQTKDGQCGSPLVSTRDGFIVGIHSASNFTNTNNYFTSVPKNFMELLTNQEAQQWVSGWRLNADSVLWGGHKVFMVKPEEPFQPVKEATQL [R51F]	0.0744	0.0671	–	0.0911	0.0768	0.0984	0.0819	0.086	0.0681	0.0626	–	0.0246	–	–	–	0.0702	–	0.0941
MGESLFKGPRDYNPISSSICHLTNESDGHTTSLYGIGFGPFIITNKHLFRRDNGTLVVQSLHGVFKVKDTTTLQQHLVDGRDMIIIRMPKDFPPFPQKLKFREPQREERICLVTTNFQTKSMSSMVSDTSCTFPSGDGIFWKHWIQTKDGQCGSPLVSTRDGFIVGIHSASNFTNTNNYFTSVPKNFMELLTNQEAQQWVSGWRLNADSVLWGGHKVFMVKPEEPFQPVKEATQL [N52D]	0.0688	0.0559	0.0755	0.0698	0.0779	0.0714	0.0636	–	0.0803	0.0702	0.0496	0.0612	–	–	0.0641	–	0.0528	0.0794

Source: the supplement of paper PMC12217912
